From paper PMC4336329 (PLoS ONE, 2015)
Hit rate of the full screen: of about 310,000 compounds, about 14,000 (4.5%) showed an effect of 50% or more. The effect is printed as a negative number. Some of the results follow.

The compounds below were run against human ether-à-go-go-related gene (hERG) potassium channel (human, UniProt Q12809) (assay: primary screen, population patch clamp on CHO cells stably expressing hERG).
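Note: peak tail current of the secondary pulse compared with the same well before compound.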

human ether-à-go-go-related gene (hERG) potassium channel, sequence (Q12809 whole entry, looked up): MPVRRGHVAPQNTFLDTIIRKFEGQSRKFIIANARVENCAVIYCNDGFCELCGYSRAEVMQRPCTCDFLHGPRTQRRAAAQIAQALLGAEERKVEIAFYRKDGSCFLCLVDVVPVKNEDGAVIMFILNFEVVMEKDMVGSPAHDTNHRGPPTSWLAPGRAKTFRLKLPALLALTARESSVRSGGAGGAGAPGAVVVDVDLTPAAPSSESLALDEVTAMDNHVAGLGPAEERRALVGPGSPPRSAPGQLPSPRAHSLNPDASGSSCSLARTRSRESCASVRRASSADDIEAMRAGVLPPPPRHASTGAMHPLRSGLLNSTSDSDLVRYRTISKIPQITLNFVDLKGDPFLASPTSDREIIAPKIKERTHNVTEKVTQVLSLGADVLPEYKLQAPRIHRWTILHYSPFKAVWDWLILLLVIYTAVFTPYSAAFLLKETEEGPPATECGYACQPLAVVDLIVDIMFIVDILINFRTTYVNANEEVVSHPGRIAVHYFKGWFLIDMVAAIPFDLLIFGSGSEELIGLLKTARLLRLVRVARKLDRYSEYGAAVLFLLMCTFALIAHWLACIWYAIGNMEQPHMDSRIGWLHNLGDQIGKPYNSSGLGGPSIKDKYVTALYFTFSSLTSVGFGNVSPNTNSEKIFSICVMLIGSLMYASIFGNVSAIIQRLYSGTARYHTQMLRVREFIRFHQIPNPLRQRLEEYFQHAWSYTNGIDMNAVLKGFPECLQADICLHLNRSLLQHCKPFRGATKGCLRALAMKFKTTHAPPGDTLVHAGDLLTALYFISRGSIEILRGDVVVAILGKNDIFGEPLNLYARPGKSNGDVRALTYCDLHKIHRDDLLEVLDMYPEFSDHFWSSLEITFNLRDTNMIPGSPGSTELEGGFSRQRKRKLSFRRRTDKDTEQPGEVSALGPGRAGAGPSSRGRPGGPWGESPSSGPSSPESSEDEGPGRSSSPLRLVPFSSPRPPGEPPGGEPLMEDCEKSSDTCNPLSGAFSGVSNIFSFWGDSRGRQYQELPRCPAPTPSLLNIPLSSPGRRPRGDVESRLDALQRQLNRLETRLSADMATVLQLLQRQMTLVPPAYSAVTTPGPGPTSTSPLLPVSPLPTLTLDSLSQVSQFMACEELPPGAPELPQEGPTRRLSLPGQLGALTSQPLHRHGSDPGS

| Structure (SMILES) | hERG current change (%, negative = inhibition) at 10uM |
| --- | --- |
| CCC1SC(CC)C(=O)N(CC(=O)NCc2ccc(F)cc2)C1=O (stereo not shown) | -7.78% |
| COc1cc(/C=N/N=C/c2cc(OC)c(O)c(OC)c2)cc(OC)c1O | 14.6% |
| O=C(COC(=O)c1cccnc1Cl)NCc1ccco1 | 34.7% |
| CCOC(=O)C(NC(C)=O)C(=O)Nc1ccc(C(C)C)cc1 (stereo not shown) | 14.9% |
| CC(=O)/C=N/Nc1ccccc1 | -10.8% |
| CCCC(=O)c1ccc(N2CCN(S(=O)(=O)c3ccc(C)cc3)CC2)c(F)c1 | 8.43% |
| O=C(COC(=O)c1ccco1)Nc1ccc([N+](=O)[O-])cc1Cl | 7.09% |
| CC(C)(C)OC(=O)CC[C@@H](C(=O)N1CCN(C(=O)OC(C)(C)C)CC1)n1cc(C(CO)NC(=O)OC(C)(C)C)nn1 (stereo partly shown) | 14.1% |
| CCOC(=O)C(=CNCC(=O)O)C(=O)OCC | -3.44% |
| Cc1ccc2nc(SCC(=O)c3cc(C)n(C)c3C)[nH]c2c1 | -9.77% |
| O=c1c(C(c2ccccc2)c2c(O)nc3n(c2=O)CCCS3)c(O)nc2n1CCCS2 | 13.9% |
| COc1ccc(OC)c(-n2c(-c3cccc(O)c3)n[nH]c2=S)c1 | 17.4% |
| COc1ccc(C(=O)Nc2ccc3ccccc3n2)cc1OC | 15.2% |
| CC1Cc2ccccc2N1C(=O)COC(=O)Cn1nnc(-c2ccccc2)n1 (stereo not shown) | 5.15% |
| O=[N+]([O-])c1ccccc1-c1ccc(C(=S)N2CCN(c3ccccc3)CC2)o1 | 22.5% |
| CCOc1ccc(CNC(=O)Cn2ccc3cc(S(=O)(=O)N4CCCCCC4)ccc32)cc1 | 7.49% |
| CC(C)CC(=O)NC1(C(F)(F)F)C(=O)Nc2c1c(=O)[nH]c(=O)n2Cc1ccco1 (stereo not shown) | 18.2% |
| Cc1c(C=O)c(=O)n(-c2ccccc2)n1C | 18.5% |
| CCOc1cc(CNCC(C)C)cc(Cl)c1OCc1ccccc1 | -14.4% |
| C1CN(CCN2CCOCC2)CCN1 | 21% |
| Cc1ccc(C(=O)c2c3ccc([N+](=O)[O-])cc3[n+]([O-])n2CCC[NH3+])cc1.O=C([O-])C(F)(F)F | -65.4% |
| O=C(CCCCCn1c(=O)[nH]c2ccccc2c1=O)NCCc1c[nH]c2ccccc12 | -12.6% |
| COC(=O)c1cc(NC(=O)c2ccc(Cn3cc(Cl)cn3)o2)cc(C(=O)OC)c1 | 16.6% |
| COC(=O)C1=C(c2ccccc2OCc2ccccc2)C[C@@H]2CC[C@H]1N2C(=O)NCc1ccccc1 | -21% |
| COc1ccc(NS(=O)(=O)c2ccc3[nH]c(=O)[nH]c3c2)cc1OC | 16.3% |
| Cc1cc(N2C(=O)C3C4c5ccccc5C(c5ccccc54)C3C2=O)no1 (stereo not shown) | -10.5% |
| COC(=O)C1=C(c2ccc(F)cc2OCc2ccccc2)C[C@@H]2CC[C@H]1N2C(=O)NCc1ccc(C(C)(C)C)cc1 | 10.7% |
| COc1ccccc1NC(=O)CSc1nnc(Cc2cc(=O)[nH]c(=O)[nH]2)n1-c1ccccc1 | -2.56% |

| Structure (SMILES) | hERG current change (%, negative = inhibition) at 10uM |
| --- | --- |
| Cc1ccc(C(=O)NCCCNC(=O)c2ccccn2)cc1 | 5.5% |
| COc1cccc(/C=N/NC(=O)CNC(=O)CCc2ccccc2)c1O | 21.8% |
| CCCN(CCC)S(=O)(=O)c1ccc(Cl)c([N+](=O)[O-])c1 | -4.02% |
| COc1ccc(C(CNC(=O)c2ccc(N3CCCC3=O)cc2)N2CCCC2)cc1 (stereo not shown) | -2.38% |
| COc1ccc(CCNS(=O)(=O)c2cc(C(=O)O)c(Cl)cc2Cl)cc1 | 10.5% |
| CC1CCCCN1CC(O)COCc1ccccc1.Cl (stereo not shown) | 5.66% |
| O=C(O/N=C/c1ccc2c(c1)OCO2)c1ccccc1Cl | 1.16% |
| CCCNC(=O)c1ccc(COc2cccc3ccccc23)o1 | -7.19% |
| COc1ccccc1CN1CC(C(=O)NCCn2nc(C)cc2C)CCC1=O (stereo not shown) | 8.76% |
| Fc1ccccc1N=C1Nc2cccc3cccc1c23 | -1.31% |
| CCOC(=O)Cc1csc(NC(=O)Cc2ccccc2)n1 | 1.37% |
| COc1ccc(C(=O)N/N=C/c2c(C)[nH]c(=O)[nH]c2=O)cc1 | 7.24% |
| O=C(Nc1nc(-c2ccco2)c(-c2ccco2)s1)c1ccco1 | -4.81% |
| CC(=O)Nc1ccc(S(=O)(=O)N=S(C)(C)=O)cc1 | 13.6% |
| COc1ccc(OC)c2c1C(=O)c1ccccc1C2=O | -5.81% |
| COc1ccc(-c2noc(CSc3nc(N)c(-c4ccccc4)c(=O)[nH]3)n2)cc1 | -2% |
| CCC(C)/C(C)=N/NC(=O)CSc1nc2ccccc2[nH]1 (stereo not shown) | 2.26% |
| Cc1ccc(C(=O)N(Cc2nc(-c3ccc(C)cc3)no2)C(C)C)cc1 | -5.71% |
| CC(C)(C)C1=CC(=O)C(N2CCOCC2)=CC1=O | -0.993% |
| CCc1ccc(OCC(=O)N/N=C/c2cc([N+](=O)[O-])ccc2N2CCCCCC2)cc1 | -11% |
| COc1ccc2cc(C(c3nnnn3CCc3ccccc3)N3CCC(O)CC3)c(=O)[nH]c2c1 (stereo not shown) | -8.63% |
| CCOC(=O)CN1C(=O)S/C(=C/c2ccc(OC)c([N+](=O)[O-])c2)C1=O | 0.523% |
| COc1cccc(CN2CCNC(=O)C2CC(=O)N2CCCCO2)c1OC (stereo not shown) | -3.91% |
| COc1ccc(/C=C2/SC(=S)N(CCCC(=O)Nc3ccccc3C(=O)O)C2=O)cc1 | -36.9% |
| COc1ccc(S(=O)(=O)NN(C)C)cc1N(C)S(=O)(=O)c1ccc(Cl)cc1 | -8.45% |
| CCOc1ccc(C(=O)NC(C(=O)NCC2CCCO2)C(C)C)cc1 (stereo not shown) | 1.31% |
| COc1cc(-c2[nH]ncc2CN(C)Cc2cc(C)[nH]n2)cc(OC)c1OC | -3.37% |
